Results reported in article PMC6919601, “Identification of Plasmodium dipeptidyl aminopeptidase allosteric inhibitors by high throughput screening” (PLoS ONE, 2019).
Several values for one entry are separate records, joined by “and”; a condition that tells them apart may be missing. Identical values can stand only once. Among all 110,000 compounds or so, about 230 (0.21%) showed an effect of 50% or more. The list shows a part of the results.

Each compound was assayed against DPAP1 (Plasmodium falciparum, UniProt Q8IIJ9) (assay: primary screen, percent inhibition; read by cleavage of a fluorogenic dipeptide substrate; higher = more effect of the substance).
Set-up: species or system P. falciparum D10 trophozoite lysates; single well
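Further: 30 min substrate incubation versus DMSO and 10 µM JCP410 controls.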

Sequence of DPAP1 (Q8IIJ9 whole entry, looked up): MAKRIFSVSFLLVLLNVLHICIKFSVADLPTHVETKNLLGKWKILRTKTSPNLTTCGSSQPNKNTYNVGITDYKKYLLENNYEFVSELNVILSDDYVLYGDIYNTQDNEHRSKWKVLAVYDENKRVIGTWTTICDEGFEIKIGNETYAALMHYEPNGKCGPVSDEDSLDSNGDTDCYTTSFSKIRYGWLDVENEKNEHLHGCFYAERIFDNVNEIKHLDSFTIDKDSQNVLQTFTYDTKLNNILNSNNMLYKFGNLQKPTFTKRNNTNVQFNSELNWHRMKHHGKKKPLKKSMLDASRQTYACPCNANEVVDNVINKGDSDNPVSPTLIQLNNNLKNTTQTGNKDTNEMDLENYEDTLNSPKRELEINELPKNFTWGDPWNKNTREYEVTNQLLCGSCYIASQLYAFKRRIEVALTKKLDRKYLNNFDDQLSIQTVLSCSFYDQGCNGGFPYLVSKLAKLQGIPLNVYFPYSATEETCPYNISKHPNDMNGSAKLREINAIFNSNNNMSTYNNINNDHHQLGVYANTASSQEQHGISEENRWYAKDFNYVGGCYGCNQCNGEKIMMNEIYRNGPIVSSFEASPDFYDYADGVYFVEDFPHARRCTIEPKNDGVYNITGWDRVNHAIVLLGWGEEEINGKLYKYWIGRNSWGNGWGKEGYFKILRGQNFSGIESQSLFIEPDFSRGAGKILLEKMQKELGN

Row | SMILES | % Inhibition @ 10 uM
1 | Sc1nc2ccccc2n2cnnc12 | -4.76%
2 | CC(=O)C1=C(C)NC(C)=C(C(C)=O)C1c1cccs1 | -1.2%
3 | CCOc1cc2c(cc1OCC)C1C(C(=O)NCc3cccnc3)c3ccccc3C(=O)N1CC2 (stereo not drawn) | 2.97%
4 | O=C(O)CCC(=O)N1N=C(c2ccccc2)CC1c1ccc2c(c1)OCO2 (stereo not drawn) | 0.361%
5 | Cc1noc(/C=C/N(C)C)c1S(=O)(=O)N1CCCC(C(=O)NCc2cccs2)C1 (stereo not drawn) | -6.52%
6 | CC(c1ccccc1)N1C(=O)CN(C2CCCCCC2)C(=O)C1c1ccccc1F (stereo not drawn) | -7.85%
7 | CCc1c(C)c2ccc3c(c2oc1=O)CN(c1cccc(C)n1)CO3 | 5.1%
8 | O=C(O)C1C2CCC(C2)C1C(=O)NCC1CCCO1 (stereo not drawn) | -2.76%
9 | O=C(CCCc1c[nH]c2ccccc12)NC1CC1 | -0.736%
10 | COC(=O)c1nnn(-c2cc(C)ccc2OC)c1N | 1.76%
11 | Cc1cc(C)nc(-n2/c(=N/c3ccccc3)cc(O)c3c(C)n(-c4ccccc4)c(=O)nc32)n1 | -3.46% and -6.99%
12 | Cc1nc2sc3c(NCC4CCCO4)ncnc3c2c2c1COC(C)(C)C2 (stereo not drawn) | 0.415%
13 | CCOc1ccccc1/N=C(\C)C1=C(O)c2ccccc2C1=O | -1.07%
14 | CS(=O)(=O)N1CCN(Cc2ccccc2C(F)(F)F)CC1 | 1.81%
15 | CCOc1ccc(/C=c2\sc3nc(-c4ccccc4OC)nn3c2=O)cc1OC | -6.78%
16 | Cc1cc(OCC(=O)N(C)C)c2c(-c3ccccc3)cc(=O)oc2c1 | -1.6%
17 | CCN(CC)CCCN(C)C(=O)Nc1cn(CC(C)C)c(=O)c2ccccc12 | -3.83%
18 | Cc1noc2ncn(CC(=O)N3CCC4(CC3)OCCO4)c(=O)c12 | -4.59%
19 | CCOc1ccccc1C(=O)Nc1cccc(OC)c1 | 2.22%
20 | COc1cccc(CN2CCN(C(=O)c3ccc(F)cc3)CC2)c1 | -3.6%
21 | CC(CNC(=O)CCc1nnc2n(Cc3ccccc3Cl)c(=O)c3ccccc3n12)c1ccccc1 (stereo not drawn) | -0.692%

Row | SMILES | % Inhibition @ 10 uM
22 | CN(C(=O)c1ccccc1N)C1CCCCC1 | -3.33%
23 | CCn1c(SCC(N)=O)nnc1-c1nonc1N | 2.62%
24 | Cc1nc2c(-c3ccc(F)cc3)c(C)nn2c(C)c1CCC(=O)NC(C)c1ccccc1 (stereo not drawn) | -2.25%
25 | CCN(CC)c1nc2c(c(=O)n(C)c(=O)n2C)n1CC(=O)c1ccc(Br)cc1 | 0.475%
26 | O=C(NC(c1ccccc1)c1c(O)ccc2ccccc12)c1ccco1 (stereo not drawn) | 5.7%
27 | COc1cc(/C=C2\C(=O)NC(=O)N(Cc3ccc(F)cc3)C2=O)ccc1O | 3.95%
28 | COc1cc2c(cc1OC)C(C)N(C(=O)c1cc3c(s1)-c1ccccc1OC3)CC2 (stereo not drawn) | 3.45%
29 | CC(=O)NS(=O)(=O)c1ccc(NC(=O)Cc2cccc3ccccc23)cc1 | -1.61%
30 | Cc1nc2cc(-c3ccccc3)nn2c(C)c1CC(=O)NCCCc1ccccc1 | -2.45%
31 | O=C(CNS(=O)(=O)c1ccc(Cl)cc1)Nc1ccc2c(c1)OCCO2 | 4.5%
32 | N#C/C(=C\c1ccc(Cl)cc1Cl)c1nc(-c2cc3cc(Br)ccc3oc2=O)cs1 | 5.64%
33 | O=C(Cn1ncc2c3ccccc3nc-2c1O)NCCCN(Cc1ccco1)C1CCCC1 | -4.51%
34 | Nc1sc2c(c1C(=O)NCCc1ccccc1)CCC2 | 2.01%
35 | COc1cccc(/C=C2\NC(=O)N(Cc3ccccc3)C2=O)c1OC(C)C | -2.19%
36 | FC(F)(F)c1ccc(CNc2ccc3c[nH]nc3c2)cc1 | -5.2%
37 | CC(C)CC(C(=O)NCC#N)c1ccc2ccccc2c1 (stereo not drawn) | -4.72%
38 | CS/C(=N\Cc1ccco1)Nc1cc(-c2ccccc2)[nH]n1 | 1.12%
39 | CCOC(=O)N1CCN(c2c(Nc3cc(C)[nH]n3)c(=O)c2=O)CC1 | -3.21%
40 | Cn1c2c(c(=O)n(C)c1=O)C(NC(=O)c1ccccc1F)(C(F)(F)F)C(=O)N2 (stereo not drawn) | -9.93%
41 | COc1cccc(-n2nnc3c(=O)n(CC(N)=O)cnc32)c1 | -2.16%
42 | CC(=O)c1ccc(NC(=O)c2ccc(C(C)C)cc2)cc1 | 20.3%

Row | SMILES | % Inhibition @ 10 uM
43 | CCN1CCN(c2nc3c(S(=O)(=O)c4cc(C)ccc4C)nnn3c3ccsc23)CC1 | -0.538%
44 | OC1=C2C(=Nc3ccccc3NC2c2ccc3c(c2)OCO3)CC(c2ccccc2)C1 (stereo not drawn) | -2.89%
45 | COc1cc(NC(=O)c2ccc(N(C)C)cc2)c(OC)cc1NC(C)=O | -5.23%
46 | COc1cccc(C2=Nc3c(c(=O)[nH]c(=O)n3CC(C)C)C(C(F)(F)F)(C(F)(F)F)N2)c1 | -1.52%
47 | Cc1ccc(S(=O)(=O)c2nnn3c2nc(N2CCN(C)CC2)c2cc(Cl)ccc23)cc1C | -4.85%
48 | O=S(=O)(c1ccccc1)c1cnc2ccc(Cl)cc2c1N1CCC2(CC1)OCCO2 | -6.24%
49 | CSc1ccc(/C=C2/NC(=O)NC2=O)cc1 | -2.87%
50 | Cc1ccc(OCCOC(N)=O)cc1 | -2.51%
51 | CCOc1ccc(C(=O)Nc2cc(C)ccn2)cc1 | -2.19%
52 | COc1ccccc1/N=c1\scc(-c2ccc(Br)cc2)n1CCCO | -6.67%
53 | CCOC(=O)c1ccc(NS(C)(=O)=O)cc1 | 3.25%
54 | O=C(CN1C(=O)c2cccc3cccc1c23)Nc1ccc2c(c1)OCO2 | -6.62%
55 | O=C1C2CC=C(Cl)CC2C(=O)N1c1ccccc1 (stereo not drawn) | 3.72%
56 | NC(=O)Cn1c(=O)n(Cc2ccccc2)c(=O)c2oc3ccccc3c21 | 1.68%
57 | OC1CCCN(Cc2c[nH]c3ccccc23)C1 (stereo not drawn) | 5.32%
58 | N#Cc1cnc2c(-c3ccccc3)c(COc3ccccc3)nn2c1N | 3.36%
59 | Nc1c2c(nc3ccccc13)N(c1cccc(Cl)c1)CC2 | 5.04%
60 | CCC(C(=O)NCCCN1CC(C)CC(C)C1)n1c2ccccc2c2cnnc(O)c21 (stereo not drawn) | -0.281%
61 | CCOc1ccccc1-n1c(C)cc(/C=C2\C(=N)N3N=C(N4CCOCC4)SC3=NC2=O)c1C | 4.88%
62 | CCCNCc1ccc(C(=O)O)s1 | -4.38%
63 | COc1cc(/C=C2/C(=N)N3OC(C)=CC3=NC2=O)cc(Cl)c1OCc1ccc2c(c1)OCO2 | -3.23%
